The results in this text go back to ChEMBL document CHEMBL4888484, “Replenishing the malaria drug discovery pipeline: Screening and hit evaluation of the MMV Hit Generation Library 1 (HGL1) against asexual blood stage Plasmodium falciparum ,using a nano luciferase reporter read-out” (2022).

The structures appear in SMILES notation. About 540 (0.36%) of roughly 150,000 compounds showed an effect of 50% or more. This is one part of the list.

In the test the test system is Plasmodium falciparum. Description: Primary screen in NF54 nanoGlo assay, in single point, at 2uM, 72h; a lower Z score goes with more inhibition. Particulars: timepoint 72 hour. The format is functional, Erythrocyte.
Regarding `c1cncc(-c2csc(N3CCC[C@@H](CN4CCOCC4)C3)n2)c1`, the “% Inhibition” value is -4% and the Z score stood at 0.51.

For `CCC(=O)Nc1ccc(NC(=O)c2ccnnc2)cc1Cl`, the “% Inhibition” value is reported as -6% and the Z score is 0.87.

As to `CCC(OC1CCCC(C)C1)C(=O)Nc1cncnc1N(C)C` (centres undefined), the “% Inhibition” value is recorded as 1% and the Z score is recorded as -0.21.

With `CCCn1c(C)cnc1CCNS(=O)(=O)CC`, the “% Inhibition” value is recorded as -1% and the Z score was found to be 0.06.

On to `Cc1ccc([C@@H](CC(=O)NCCC(c2ccccc2)c2ccccc2)c2c[nH]c3ccccc23)c(C)c1`, for which the “% Inhibition” value is on record as -12% and the Z score is recorded as 1.14.

On to `COc1ccccc1Cc1nnc(NS(=O)(=O)Cc2ccccc2)s1`, for which the “% Inhibition” value is recorded as -9% and the Z score is 1.67.

In the case of `Cc1ccc(C(=O)NCC2(Cn3ccnc3)CC2)n1C(F)F`, the “% Inhibition” value is -15% and the Z score came to 1.93.

On to `CC(=O)C1CN(c2nc(C)cc(C(F)(F)F)n2)C1`, for which the “% Inhibition” value stood at 4% and the Z score is on record as -0.5.

With `CC(C)OCC(=O)Nc1ccc(F)c(C(=O)OC(C)(C)C)c1Cl`, the “% Inhibition” value was -14% and the Z score is on record as 1.82.

As for `N#Cc1ccc(Br)c(CN2CCS(=O)(=O)C[C@H]2C2CC2)c1`, the “% Inhibition” value is given as -12% and the Z score was found to be 1.19.

As to `CC1C(c2ccccc2)NC(c2ccccc2)CC1(O)c1ccc(F)cc1` (centres undefined), the “% Inhibition” value is on record as -3% and the Z score came to 0.5.

In the case of `CCS(=O)(=O)N1CCC2(CC1)C[C@@H](Cc1cccc(F)c1)CCO2`, the “% Inhibition” value is listed as -8% and the Z score is given as 1.52.

For the molecule `O=C(N[C@H]1CCN(C2CCCCCC2)C1)c1cc(F)ccc1F`, the “% Inhibition” value is on record as 0% and the Z score is given as -0.03.

Consider `COc1nccc2c(NC(=O)N3CCC4C3CCCN4C)cccc12` (centres undefined), for which the “% Inhibition” value turned out to be 4% and the Z score was -0.59.

With `Cc1ccc(-c2csc(N3C(=O)CC4CS(=O)(=O)CC43)n2)cc1C` (centres undefined), the “% Inhibition” value is reported as 38% and the Z score is listed as -5.15.

With `C[C@@H](COCC(F)(F)F)NC(=O)N(C)CC1CCC1`, the “% Inhibition” value is -4% and the Z score is on record as 0.53.

Consider `Cc1cc2c(c(-c3nc4ccccc4s3)c1)O[C@@H](CNC(=O)CCC(F)(F)F)C2`, for which the “% Inhibition” value is recorded as 7% and the Z score is reported as -0.9.

Turning to `CC(C)CN1CC2CN(C(=O)C(c3ccncc3)C(C)C)CCN2C1=O` (centres undefined), the “% Inhibition” value is on record as -6% and the Z score is on record as 1.01.

As to `O=C(COC(=O)c1c(F)cccc1Cl)Nc1ccc2c(c1)OCCCO2`, the “% Inhibition” value is given as -2% and the Z score was determined as 0.28.

In the case of `O=C(Nc1ccccc1N1CCOCC1)c1ccc(S(=O)(=O)N2CCOCC2)cc1`, the “% Inhibition” value stood at 2% and the Z score is on record as -0.26.

In the case of `CCn1ccc(C(=O)N2CCC[C@H]2c2nc(-c3ccccc3OC)no2)n1`, the “% Inhibition” value was -11% and the Z score was determined as 1.67.

In the case of `CNC(=O)[C@H](C1CCCC1)N1CCN(C(=O)c2ccc(Cl)cc2)CC1`, the “% Inhibition” value was determined as 6% and the Z score is listed as -0.99.

`Cc1cnn(C2CN(CC(=O)N3CC(C)OC(C)C3)C2)c1` (centres undefined): the “% Inhibition” value was -7% and the Z score amounted to 0.93.

In the case of `O=C(NCCc1ncc[nH]1)[C@@H]1[C@H]2[C@@H]3CC[C@@H](C3)[C@@H]12`, the “% Inhibition” value is listed as -11% and the Z score was 1.44.

Turning to `NC(=O)[C@@H]1CCCCN1C(=O)Cn1ccc(C(F)F)n1`, the “% Inhibition” value is 1% and the Z score is recorded as -0.2.

With `O=S1(=O)C[C@@H]2[C@H](C1)N(c1ncccn1)CCN2Cc1nc(-c2ccco2)no1`, the “% Inhibition” value is given as -10% and the Z score came to 0.91.

With `O=C(Nc1cnsc1)c1ccoc1C1CC1`, the “% Inhibition” value was 6% and the Z score is on record as -0.76.

In the case of `CC(=O)Nc1c(C)cc(C)cc1C(=O)O`, the “% Inhibition” value is 9% and the Z score is recorded as -0.99.

As for `C[C@@H](C1CC1)N(Cc1ccccc1)S(=O)(=O)c1ccc(Cl)cc1`, the “% Inhibition” value is listed as -1% and the Z score is on record as 0.17.

Consider `Cn1nc(C2CCOCC2)cc1C(=O)NCCc1cccc(Cl)c1`, for which the “% Inhibition” value is on record as -23% and the Z score was determined as 2.94.

Take `CCOc1ccccc1NC(=O)[C@H]1CCCN(c2nc(C)nc3oc(C)c(C)c23)C1`: the “% Inhibition” value is listed as -3% and the Z score came to 0.35.

`CCc1nnsc1C(=O)Nc1cnns1`: the “% Inhibition” value was -3% and the Z score was found to be 0.42.

Turning to `COc1ccccc1[C@@H]1CNC(=O)c2nc(-c3ncn[nH]3)[nH]c2C1`, the “% Inhibition” value was -9% and the Z score came out at 1.73.

In the case of `O=C1C[C@H](c2ccc(O)cc2)c2c(c(C(=O)O)cn2-c2ccccc2F)N1`, the “% Inhibition” value is -39% and the Z score amounted to 4.61.

For `Cc1oc(C(C)C)cc1C(=O)N1C[C@@H]2CC[C@H]1CN(C(=O)c1ccncc1)C2`, the “% Inhibition” value is recorded as -7% and the Z score was 1.2.

With `CN(C)Cc1cccc(C(=O)N2CCC[C@H]2C2CCCCC2)c1`, the “% Inhibition” value is -7% and the Z score is 1.06.

In the case of `O=S(=O)(NCC1(N2CCOCC2)CCCCC1)N1CCCCC1`, the “% Inhibition” value is -5% and the Z score is 0.85.

`COc1cc(C(=O)N2CCC(C(=O)NC(C)(C)C)CC2)cc(OC)c1OCc1ccccc1`: the “% Inhibition” value is -5% and the Z score turned out to be 0.96.

Take `CC(C)CN(Cc1c(-c2ccccc2)noc1N1CCC(C)CC1)C(=O)c1ccc(F)cc1`: the “% Inhibition” value is recorded as 1% and the Z score is on record as -0.14.

Consider `O=C(N[C@H](c1cccs1)C1CCOCC1)c1nc(-c2cccs2)cs1`, for which the “% Inhibition” value was found to be 6% and the Z score was -0.82.

Regarding `O=C(c1ccc(-c2ccc3c(c2)OCCO3)s1)N1CCCCCCC1`, the “% Inhibition” value is given as -46% and the Z score worked out at 4.1.

For `CC(C)N1CCC(NC(=O)CN2CCCN(Cc3ccccc3)c3ccccc32)CC1`, the “% Inhibition” value turned out to be 0% and the Z score is recorded as -0.05.

As usually defined, the % Inhibition is the change of the read-out against control, counted positive when it falls.
